Experimental data: patent publication US11547737B2, “Compositions and methods for treating virus infection” (priority 2020, dated 2023)

Test: Solid form stability of CHP forms by XRPD (storage, drying, DVS)
Experimental: XRPD analysis was carried out on a PANalytical X'pert pro, scanning the samples between 3 and 35° 2θ. The material was gently ground to release any agglomerates and loaded onto a multi-well plate with Kapton or Mylar polymer film to support the sample. The multi-well plate was then placed into the diffractometer and analysed using Cu K radiation (α1λ=1.54060 Å; α2=1.54443 Å; β=1.39225 Å; α1:α2 ratio=0.5) running in transmission mode (step size 0.0130° 2θ) using 40 kV/40 mA generator settings.
XRPD analysis was carried out on a sample of 5 g of CHP Hydrate. The sample was weighed in a glass vial, and 6 mL of a 90:10 ethanol/water mixture was added to make a slurry. The mixture was then agitated for approximately 24 hours at ambient temperature and then analyzed by XRPD. […] XPRD analysis was carried out to assess any change in the form of the material.
The vial was placed inside the oven for an additional 18 hours. […] There was an extra peak at 8° 2θ that had not been previously seen in any pattern.

Structure (SMILES): O=C1N[C@@H](Cc2cnc[nH]2)C(=O)N2CCC[C@@H]12 [CHP hydrate, cyclo(-His-Pro) hydrate]
- form by XRPD (dried at 50° C. for 90 minutes): still predominantly Pattern 2 with some Pattern 1 peaks
- form by XRPD (dried at 80° C. for 18 hours): a mixture of Pattern 1 and Pattern 2
- form by XRPD (vacuum oven 50° C. for 1 hour): still predominately Pattern 2 with some Pattern 1 peaks
